The RNAGym collection of RNA variant scans (doi:10.1093/nar/gkz1192)
The source gives no read counts; variants with many changes may rest on few reads.

B1: CPEB3 Ribozyme (parent)
chain: UAACAGGGGGCCACAGCAGAAGCGUUCACGUCGCAGCCCCUGUCAGAUUCUGGUGAAUCUGCGAAUUCUGCUGUAUAUCUC

Variants of: B1
Assay: self-cleavage, relative activity (ratio to wild type); higher = more cleavage; in vitro, sequencing
Summary of the method: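 After error-prone PCR and barcoding, CPEB3 ribozyme mutant libraries were transcribed with T7 RNA polymerase at 37°C for 5 hours, then given 15 min with DNase I before an EDTA stop, and they cleaved during both steps. Reverse transcription with template switching preceded Illumina sequencing. Relative activity divides a variant's cleaved/total read fraction by the unmutated ribozyme's. At least 5 reads were required per variant, and three batches were averaged.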
For UAGCGGGGGGCCACAGCAGAAGCGGUCACGUCGCAGCCCCUGUCAGAUUCUGGUGAAUCUGCGAAUUCCGCUGUAUAUCUC [A3G A5G U25G U69C], the self-cleavage was 0.06.
UAGCGGGGGGCCACAGCAGAAGCGUCCACGUCGCAGCCCCUGUCAGAUUCUGGUGAAUCUGCGAAUACUGCUGUAUAUCUC [A3G A5G U26C U67A] showed a self-cleavage of 0.06.
UAGCGGGGGGCCACAGCAGAAGCGUUCACGUCGCAGCCCCCGUCAGAUUCUGGUGAAUCUGCGAAUUGUGCUGUAUAUCUC [A3G A5G U41C C68G] showed a self-cleavage of 0.56.
Work on UAGCUGGGGGCCACAGCAGAAGCGUUCACGUCGCAGCCCCUGUCAGAUUCUGGUGAAUCUGCGGAUUCUGCAGUAUAUCUC [A3G A5U A64G U72A] yielded a self-cleavage of 0.78.
Work on UAGCAGGGGGCCGCAGCUGAAGCGUUCACGUCACAGCCCCUGCCAGAUUCUGGUGAAUCUGCGAAUUCUGCUGUAUAUCUC [A3G A13G A18U G33A U43C] yielded a self-cleavage of 0.4.
For UAGCGGGGGGCCACAGCAGAAGCGCUCACGUCACAGCCCCUGUCAGAUUCUGGUGAAUCUGCGAAUUCCGCCGUAUAUCUC [A3G A5G U25C G33A U69C U72C], the self-cleavage was 0.22.
Work on UAGCUGGGGGCCACAGCAGAAGCGUUCACGUCGCAGCCCCUGUCAGAUUCUGGUGAAACUGCGAAUUCUGCUGUAUAUCUC [A3G A5U U58A] yielded a self-cleavage of 0.46.
UAGCAGGGGGCCGAAGCAGAAGCGUUCACGUCGCAGCCCCUGUCAGAUUCUGGUGAAUCCGCGAAUUCCGCUGUAUAUCUC [A3G A13G C14A U60C U69C] showed a self-cleavage of 0.1.
For UAGCGGGGGGCCACAGCAGAAGUGUUCACGUCGCAGCCCCUGUCAGAUUCUGGUGAAUCUGCGAAUUCCGCUGUCUACCUC [A3G A5G C23U U69C A75C U78C], the self-cleavage was 0.08.
UAGCGGGGGGCCACAGCAGAAGCGUUCACGUCGCAGCGCCUGUCAGGUUCUGGUGAAUCUGCGAAUUCGGCUGCAUAUCCC [A3G A5G C38G A47G U69G U74C U80C] showed a self-cleavage of 0.07.
UAGCAGGGGGCCGCAGCAGAAGCGUUAACGUCGCAGCCCCUGUCAUAUUCUGGUGAAUCUGCGAAUUCUGCUGUAUAUCGC [A3G A13G C27A G46U U80G] showed a self-cleavage of 0.2.
With UAGCAGGGGGCCCCAGCACAAGCGUUCACGUCGCAGCCACUGUAAGGUUCUGGUGAGUCUGCGAAUUCUGCUGUAUAUCUC [A3G A13C G19C C39A C44A A47G A57G] the self-cleavage was 0.08.
Work on UAGCUGGGGGCCACGGCAGAAGCGUUCACGUCGCAGCCCCUGUCAGAUUCAGGUGAAUCUGCGAACUCUGCUGUAUUCCUC [A3G A5U A15G U51A U66C A77U U78C] yielded a self-cleavage of 0.35.
For UAGCGGGGGGCCACAGCAGAAGCGUUCACGUCGCUGCCCCUGUCAGAUUCUGGUGAAUCUGCGAAUUCGGCUGUAUACCUC [A3G A5G A35U U69G U78C], the self-cleavage was 0.27.
For UAGCCGGGGGCCACAGCAGAAGCGUCCACGUCGCAGCCCCUGUCAGAUUCUGGUGAAUCUGCGAAUCCUGCUGUAUAUCCC [A3G A5C U26C U67C U80C], the self-cleavage was 0.36.
Work on UAGCAGGGGGCCGCGGCAGAAGCGUUCACGUCGCAGCCCCUGUCAGAUUCUGGUGUAUCUGCGAAUUCUGCUGUAUAUCUC [A3G A13G A15G A56U] yielded a self-cleavage of 0.32.
Work on UAGCGGGGGGCCACAGCAGAAGUGUUCACGUCGCAGCCCCUGUCAGAUUCUGGUGAAUCUGCGAAUUCCGCUGUAUACCUC [A3G A5G C23U U69C U78C] yielded a self-cleavage of 0.24.
UAGCAGGGGGCCGCAGCAGAAGCGUUAACGUCGCAGCCCCUGUCAGAUUCUGGUGAAUCCGCGAAUUCCGCUGUAUAUCUC [A3G A13G C27A U60C U69C] gave a self-cleavage of 0.26.
Variant UAGCUGGGGGCCACAGCAGAAGCGUUCACGUCGCAGCCCCUGUCAGAUUCUGGUGAAUCUGCGAAUACUGCUGUAUAUCUC [A3G A5U U67A] has a self-cleavage of 0.68.
UAGCAGGGGGCCGCAGCAGAAGCGUUCACGUCGCAGCCCCUGUCAGUUUCUGGAGGGUCUGCGAAUACUGCUGUAUAUCUC [A3G A13G A47U U54A A56G A57G U67A] gave a self-cleavage of 0.08.
For UAGCAGGGGGCCGCUGCAGAAGCGUUCACGUCGCAGCCCCCGUCAGAUUCUGGUGAAUCUGCGAAUUCUGCUGUAUAUCUC [A3G A13G A15U U41C], the self-cleavage was 0.83.
UAGCUGGGGGCCACAGCAGAAGCGUUCACGUCGCAGCCCCCGUCAGAUUCUGGUGAAUCUGCGAGUUCUGCUGUAUAUCUC [A3G A5U U41C A65G] gave a self-cleavage of 0.48.
Variant UAGCGGGGGGCCACAGCAGAAGCGCUCACGUCGCAGCCCCUGUCGGAUACUGGUGAACCUGCGAAUUCUGCUGUAUAUCUC [A3G A5G U25C A45G U49A U58C] has a self-cleavage of 0.12.
Variant UAGCGGGGGGCCACAGCAGAGGCGUUCACGACGCAGCCCCUGUCCGAUUCUGGUGAAUCUGCGCAUUCUGCUGUAUAUCUC [A3G A5G A21G U31A A45C A64C] has a self-cleavage of 0.07.
Variant UAGCGGGGGGCCACAGCAGAAGCGCUCACGUCGCUGCCCCUGUCAGAUUCUGGUGAAUCUGCGAAUUCUGCCGUAUAUCUC [A3G A5G U25C A35U U72C] has a self-cleavage of 0.66.
For UAGCGGGGAGCCACAGCAGAAGCGUUCACGUCGCUGCCCCUGUCAGAUUCUGGCGAAUCUGCGAGUUCUGCUGAAUAUCUC [A3G A5G G9A A35U U54C A65G U74A], the self-cleavage was 0.27.
With UAGCGGGGGGCUACAGCAGAAGCGUUCACGACGCAGCCCCUGUCAGAUUCUGGUGAAUCUGCGAGUCCUGCUGUGUAUCUC [A3G A5G C12U U31A A65G U67C A75G] the self-cleavage was 0.13.
Variant UAGCUGGGGGCCACAGCAGAAGCGUUCACGUCGCAGCCCCUGUCAGAUUCUGGUGAAUCUGCGGAUCCUGCUGUAUAUCUC [A3G A5U A64G U67C] has a self-cleavage of 0.2.
In the case of UAGCUGGGAGCCACAGCAGAAGCGUACGCGUCGCAGCCCCUGUCAGAUUCUGGCGAAUCUGCGAAUUCUGCUGUAUAUCCC [A3G A5U G9A U26A A28G U54C U80C], the self-cleavage is reported as 0.06.
UAGCAGGGGGCCGCAGCGGAAGCGUUCACGUCGCAGCCACUGUCAGAUUCUGGUGAAUCUGCGAAUUCUGCUGUAUAUCUC [A3G A13G A18G C39A] gave a self-cleavage of 0.26.
With UAGCAGGGGGCCGCGGCAGAGGCGUUCACGUCGUAGCCCCUGUCAGAUUCUGGUGAAUCUGCGAAUUCUGCUGUAUAUCUC [A3G A13G A15G A21G C34U] the self-cleavage was 0.48.
In the case of UAGCAGGGGGCCGCAGUAGAAGCGUUCACGCCGCAGCCCCUGUCAGGUUCGGGUGAAUCUGCGAACUCUGCUGUAUAUCUC [A3G A13G C17U U31C A47G U51G U66C], the self-cleavage is reported as 0.25.
With UAGCGGGGGGCCACAGCAGAAGCGUACACGUCGCAGCCCCUGUCGGAUUCAUGUGAAUCUGCGAAUUCUGCUGUAUAUCUC [A3G A5G U26A A45G U51A G52U] the self-cleavage was 0.41.
UAGCGGGGGGCCACAGCAGAAGCGUUCACGUCGCAGCCCCUGUCAGAUCCAGGUGAAUCUGCGAAUUCUGCUGUAUAGCUC [A3G A5G U49C U51A U78G] gave a self-cleavage of 0.2.
